Measurements as given in a compilation of properties of binary mixtures (doi:10.1016/j.jct.2005.07.020).
The densities may have been worked out from excess volumes.

Assay: xn = mol fraction of the nth substance listed
Settings: 298.15 K, 101 kPa

With CCCCCC[n+]1ccn(C)c1.F[P-](F)(F)(F)(F)F + CC(C)=O as the compound, how does the mass density (x2 = 0) read?
Its mass density is 1293.7 kg/m3.

And the mass density (x2 = 0.0482)?
The mass density was 1286.8 kg/m3.

What about the mass density (x2 = 0.089) of the same compound?
Its mass density is 1280.9 kg/m3.

What about the mass density (x2 = 0.1826) of the same compound?
The mass density was 1265.4 kg/m3.

And the mass density (x2 = 0.2873)?
Its mass density is 1244.9 kg/m3.

What about the mass density (x2 = 0.3971) of the same compound?
Its mass density is 1218.6 kg/m3.

And the mass density (x2 = 0.532)?
The mass density was 1176.8 kg/m3.

And the mass density (x2 = 0.6379)?
Its mass density is 1132.8 kg/m3.

And the mass density (x2 = 0.7225)?
Its mass density is 1087.3 kg/m3.

What about the mass density (x2 = 0.8067) of the same compound?
The mass density was 1027.6 kg/m3.

What about the mass density (x2 = 0.9089) of the same compound?
The mass density was 925.4 kg/m3.

What about the mass density (x2 = 0.9538) of the same compound?
Its mass density is 864.1 kg/m3.

For CCCCCC[n+]1ccn(C)c1.F[P-](F)(F)(F)(F)F + CCC(C)=O, which mass density (x2 = 0.0517) is on record?
Its mass density is 1285.2 kg/m3.

What about the mass density (x2 = 0.0988) of the same compound?
Its mass density is 1276.4 kg/m3.

What about the mass density (x2 = 0.1964) of the same compound?
Its mass density is 1256.5 kg/m3.

What about the mass density (x2 = 0.2988) of the same compound?
Its mass density is 1232.5 kg/m3.

What about the mass density (x2 = 0.3994) of the same compound?
The mass density was 1204.8 kg/m3.

What about the mass density (x2 = 0.5005) of the same compound?
The mass density was 1170.9 kg/m3.

And the mass density (x2 = 0.5963)?
Its mass density is 1132 kg/m3.

What about the mass density (x2 = 0.7071) of the same compound?
Its mass density is 1075 kg/m3.

And the mass density (x2 = 0.8094)?
Its mass density is 1006.3 kg/m3.

What about the mass density (x2 = 0.9023) of the same compound?
Its mass density is 922.6 kg/m3.

And the mass density (x2 = 0.9421)?
Its mass density is 878.3 kg/m3.

Which mass density (x2 = 0) does the source give for CCCCCC[n+]1ccn(C)c1.F[P-](F)(F)(F)(F)F + CCCC(C)=O here?
Its mass density is 1293.7 kg/m3.

And the mass density (x2 = 0.2961)?
The mass density was 1222.3 kg/m3.

What about the mass density (x2 = 0.4017) of the same compound?
Its mass density is 1189.1 kg/m3.

What about the mass density (x2 = 0.5054) of the same compound?
The mass density was 1150.5 kg/m3.

And the mass density (x2 = 0.6015)?
Its mass density is 1108.2 kg/m3.

What about the mass density (x2 = 0.7066) of the same compound?
Its mass density is 1052.5 kg/m3.

What about the mass density (x2 = 0.804) of the same compound?
Its mass density is 988.4 kg/m3.

What about the mass density (x2 = 0.9068) of the same compound?
The mass density was 902.8 kg/m3.

And the mass density (x2 = 0.9462)?
The mass density was 863.5 kg/m3.

For CC(C)=O + CCCCCC[n+]1ccn(C)c1.F[P-](F)(F)(F)(F)F, which mass density (x1 = 1) is on record?
Its mass density is 784.4 kg/m3.

Which mass density (x1 = 1) does the source give for CCCC(C)=O + CCCCCC[n+]1ccn(C)c1.F[P-](F)(F)(F)(F)F here?
Its mass density is 801.4 kg/m3.

With CCCCOC(C)=O + CCCCCC[n+]1ccn(C)c1.F[P-](F)(F)(F)(F)F as the compound, how does the mass density (x1 = 1) read?
Its mass density is 876.3 kg/m3.

For CCOC(=O)OCC + CCCCCC[n+]1ccn(C)c1.F[P-](F)(F)(F)(F)F, which mass density (x1 = 1) is on record?
The mass density was 969.2 kg/m3.

Which mass density (x1 = 1) does the source give for COC(=O)OC + CCCCCC[n+]1ccn(C)c1.F[P-](F)(F)(F)(F)F here?
Its mass density is 1063.3 kg/m3.

Which mass density (x1 = 1) does the source give for COC(C)=O + CCCCCC[n+]1ccn(C)c1.F[P-](F)(F)(F)(F)F here?
The mass density was 926.9 kg/m3.

For CCCCCC[n+]1ccn(C)c1.F[P-](F)(F)(F)(F)F + CCCCOC(C)=O, which mass density (x2 = 0) is on record?
The mass density was 1293.7 kg/m3.

What about the mass density (x2 = 0.0504) of the same compound?
Its mass density is 1283 kg/m3.

What about the mass density (x2 = 0.106) of the same compound?
Its mass density is 1270.5 kg/m3.

And the mass density (x2 = 0.2035)?
The mass density was 1246.7 kg/m3.

What about the mass density (x2 = 0.3082) of the same compound?
Its mass density is 1217.8 kg/m3.

And the mass density (x2 = 0.4216)?
Its mass density is 1182.3 kg/m3.

And the mass density (x2 = 0.4934)?
The mass density was 1157.1 kg/m3.

And the mass density (x2 = 0.7055)?
The mass density was 1066 kg/m3.

What about the mass density (x2 = 0.7946) of the same compound?
The mass density was 1017.8 kg/m3.

What about the mass density (x2 = 0.9087) of the same compound?
The mass density was 945.2 kg/m3.

And the mass density (x2 = 0.9635)?
The mass density was 905.2 kg/m3.

Which results are given for CCCCCC[n+]1ccn(C)c1.F[P-](F)(F)(F)(F)F + CCOC(=O)OCC?
mass density (x1 = 0.0098): 976.1 kg/m3; mass density (x2 = 0): 1293.7 kg/m3; mass density (x2 = 0.0502): 1286.2 kg/m3; mass density (x2 = 0.1003): 1278.8 kg/m3; mass density (x2 = 0.2981): 1244.3 kg/m3; mass density (x2 = 0.3948): 1223.6 kg/m3; mass density (x2 = 0.6005): 1167.5 kg/m3; mass density (x2 = 0.7012): 1131.7 kg/m3; mass density (x2 = 0.8011): 1088.2 kg/m3; mass density (x2 = 0.8546): 1060.7 kg/m3; mass density (x2 = 0.8702): 1052.1 kg/m3

With CCCCCC[n+]1ccn(C)c1.F[P-](F)(F)(F)(F)F + CCOC(C)=O as the compound, how does the mass density (x2 = 0.1006) read?
The mass density was 1278.6 kg/m3.

What about the mass density (x2 = 0.198) of the same compound?
Its mass density is 1261.7 kg/m3.

What about the mass density (x2 = 0.4076) of the same compound?
The mass density was 1215.7 kg/m3.

And the mass density (x2 = 0.5083)?
The mass density was 1187.1 kg/m3.

And the mass density (x2 = 0.6003)?
The mass density was 1155.5 kg/m3.

And the mass density (x2 = 0.6995)?
Its mass density is 1113.8 kg/m3.

What about the mass density (x2 = 0.7971) of the same compound?
Its mass density is 1062 kg/m3.

And the mass density (x2 = 0.8982)?
Its mass density is 991.3 kg/m3.

And the mass density (x2 = 0.9415)?
The mass density was 954 kg/m3.

Which results are given for CCCCCC[n+]1ccn(C)c1.F[P-](F)(F)(F)(F)F + COC(=O)OC?
mass density (x2 = 0.0999): 1286.6 kg/m3; mass density (x2 = 0.1967): 1278.8 kg/m3; mass density (x2 = 0.3001): 1269 kg/m3; mass density (x2 = 0.4015): 1257.3 kg/m3; mass density (x2 = 0.4957): 1244.2 kg/m3; mass density (x2 = 0.7065): 1202.1 kg/m3; mass density (x2 = 0.8085): 1170.4 kg/m3; mass density (x2 = 0.8974): 1131.2 kg/m3; mass density (x2 = 0.9476): 1101.7 kg/m3

Which results are given for CCCCCC[n+]1ccn(C)c1.F[P-](F)(F)(F)(F)F + COC(C)=O?
mass density (x2 = 0): 1293.7 kg/m3; mass density (x2 = 0.0501): 1288.3 kg/m3; mass density (x2 = 0.0998): 1282.6 kg/m3; mass density (x2 = 0.1957): 1270.3 kg/m3; mass density (x2 = 0.298): 1254.8 kg/m3; mass density (x2 = 0.3753): 1240.9 kg/m3; mass density (x2 = 0.5925): 1188.1 kg/m3; mass density (x2 = 0.712): 1144.6 kg/m3; mass density (x2 = 0.7934): 1105.1 kg/m3; mass density (x2 = 0.9033): 1029.7 kg/m3; mass density (x2 = 0.9589): 976.4 kg/m3
